Among all 46,000 compounds or so, about 60 (0.1%) were called active. Roughly 3% stayed inconclusive and do not appear here. Calls follow the shape of the dose curve; as a rule, active = well fitted inhibition curve with a large enough effect; inconclusive = small, poorly fitted or top-dose-only effect; inactive = no such curve, though single readings can be large or run the other way. The list shows a part of the results.

The nature of the assay: Primary qHTS assay for Inhibitors of ovarian cancer metastasis using an organotypic tumor microenvironment (TME) model. Also: nearly all actives have a fitted effect of over 65% in size.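 As to activity change, negative = inhibition: plate controls were DMSO wells for no effect and tomatine positive control wells for full effect.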 Conditions: SKOV3ip1-GFP adhesion/invasion on 3D omental model, fluorescence; series mostly up to 45.8 µM; activity change, negative = inhibition: at the top concentration. An outline of the steps:
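A 3D layer of primary human omental fibroblasts, mesothelial cells, fibronectin and collagen I, grown 48 hr, received SKOV3ip1-GFP cells in serum-free medium plus compounds at 0.36-46 umol/L. After 2 hr RT and 16 hr 37 C, fixed adherent GFP cells were counted; normalized to DMSO and tomatine.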
On the technique in general: In qHTS, concentration-response curves come from the screen itself.
On to `CCCCSCCCNC(=O)c1cn(C)c2ccc(S(=O)(=O)N3CCCC3)cc2c1=O`, for which the “activity change, negative = inhibition” value was inactive: -6.81%.

`Cc1ccc(CNC(=O)CCCCn2c(=O)c3ccccc3n(Cc3ccc(C)cc3)c2=O)cc1`: the “activity change, negative = inhibition” value is inactive: 57.9%.

On to `CC1CCCCN1S(=O)(=O)c1cc2c3c(c1)CC(=O)N3CCC2` (stereo not drawn), for which the “activity change, negative = inhibition” value is inactive: -6.53%.

As to `Cc1ccc(-n2nnnc2CNC(=O)c2ccccc2)cc1C`, the “activity change, negative = inhibition” value is inactive: 1.82%.

`COc1cc(C(=O)N2CCN(c3ccc(Nc4ccccc4)nn3)CC2)cc(OC)c1OC`: the “activity change, negative = inhibition” value is inactive: 0.622%.

Take `COc1ccc(N2CCN(CCCNC(=O)c3cc(Nc4ccccc4OC)nc4ccccc34)CC2)cc1`: the “activity change, negative = inhibition” value is inactive: -8.95%.

Regarding `CCc1cccc(C)c1NC(=O)C1CCN(S(=O)(=O)Cc2ccccc2)CC1`, the “activity change, negative = inhibition” value was inactive: -7.1%.

On to `Cc1ccc(Nc2nc(Nc3ccc(C)c(C)c3)nc(N3CCOCC3)n2)cc1C`, for which the compound was called inactive.

Consider `Cc1ccc(-c2nc(CS(=O)(=O)CC(=O)NCc3ccccc3Cl)c(C)o2)cc1`, for which the outcome was inactive.

Consider `Cc1cccc(CNC(=O)CN2C(=O)CCCc3ccccc32)c1`, for which the “activity change, negative = inhibition” value is inactive: 1.29%.

Consider `CCc1cccc(C)c1NC(=O)CN1C(=O)C2(SCC(=O)N2c2cc(C)cc(C)c2)c2ccccc21` (stereo not drawn), for which the result was inactive.

Consider `CN(C)S(=O)(=O)c1ccc2c(c1)N(CC(=O)N1CCN(c3ccccc3F)CC1)CCS2`, for which the “activity change, negative = inhibition” value is inactive: -18.5%.

For the compound `COc1cccc(C(=O)Nc2ccccc2-c2nc3ccccc3s2)c1`, the “activity change, negative = inhibition” value is inactive: 1.51%.

For `O=C(Cn1c(-c2cccs2)cc2ccccc21)NCc1ccccc1Br`, the “activity change, negative = inhibition” value is inactive: -4.32%.

Consider `COc1ccc(N2CC(NC(=O)COc3ccc4ccccc4c3)CC2=O)cc1` (stereo not drawn), for which the “activity change, negative = inhibition” value was inactive: 20.5%.

For `O=C(Cn1c(=O)n(Cc2ccc(C(=O)NCc3ccccc3Cl)cc2)c(=O)c2ccccc21)Nc1ccc(F)c(Cl)c1`, the compound was called inactive.

Take `COc1cc(OC)cc(C(=O)Nc2cccc(-c3cn4cccnc4n3)c2)c1`: the “activity change, negative = inhibition” value is inactive: 0.317%.

On to `Cc1cccc(NC(=O)c2sc(-n3nc(C)c(CCC(C)C)c3C)nc2C)c1C`, for which the “activity change, negative = inhibition” value is inactive: -5.14%.

For `CC1=C(C(=O)Nc2cccc(C(F)(F)F)c2)C2(CCCCC2)OC1=O`, the compound was called inactive.

In the case of `O=S(=O)(c1ccc2[nH]c3c(c2c1)CCCCC3)N1CCN(c2cccc(Cl)c2)CC1`, the “activity change, negative = inhibition” value is inactive: -4.85%.

Consider `Cc1ccccc1CNC(=O)c1sc2ncnc(N(C)C3CCCCC3)c2c1C`, for which the “activity change, negative = inhibition” value is inactive: -2.82%.

For `Cc1oc(-c2cccc(Cl)c2)nc1CN1CCCC(C(=O)NCc2ccc(Cl)cc2)C1` (stereo not drawn), the “activity change, negative = inhibition” value is inactive: 0.94%.

For the compound `COc1ccc(NC(=O)CN2C(=O)c3ccccc3Sc3ccc(C(=O)N4CCOCC4)cc32)c(OC)c1`, the “activity change, negative = inhibition” value is inactive: -9.12%.

Consider `CCOC(=O)C1CCN(c2c(C(=O)c3ccc(C)cc3)cnc3ccc(F)cc23)CC1`, for which the “activity change, negative = inhibition” value was inactive: -7.38%.

On to `CCCOc1ccc(NC(=O)CC2C(=O)N(c3ccc(C)cc3)C(=O)N2Cc2cccc(OC)c2)cc1` (stereo not drawn), for which the “activity change, negative = inhibition” value was inactive: -21.6%.

Consider `COc1cccc(CNC(=O)COCc2cc(-c3ccc4c(c3)OCO4)on2)c1`, for which the “activity change, negative = inhibition” value is inactive: -9.8%.

On to `COc1cccc(CNC(=O)c2ccc3c(c2)nc2n3CCCCC2)c1OC`, for which the “activity change, negative = inhibition” value is inactive: 2.78%.

For the compound `CCc1ccc(NC(=O)c2nnn(Cc3cccc(C(F)(F)F)c3)c2N)cc1`, the “activity change, negative = inhibition” value was inactive: -1.77%.

As for `O=C(Nc1ccc(Oc2ccnc3[nH]ccc23)c(F)c1)c1cccn(-c2ccc(F)cc2)c1=O`, the “activity change, negative = inhibition” value was inactive: 0.304%.

With `CCOC(=O)c1cccc(NS(=O)(=O)c2cc3[nH]c(=O)c(=O)[nH]c3cc2C)c1`, the call was inactive.

Take `Cc1nc2ncnn2c(C)c1CCC(=O)N1CCN(c2cccc(Cl)c2)CC1`: the “activity change, negative = inhibition” value was inactive: 6.72%.

For `CC1CCC2(CC1)N=C(c1ccccc1)C(=O)N2CC(=O)Nc1ccc(F)c(Cl)c1` (stereo not drawn), the result was inactive.

For the compound `COc1cc(NC(=O)c2cccc(F)c2)ccc1NC(=O)c1cc2ccccc2o1`, the “activity change, negative = inhibition” value is inactive: 1.06%.

Turning to `CCOc1ccccc1NC(=O)CN1CCCN(Cc2cccc(Cl)c2)S1(=O)=O`, the “activity change, negative = inhibition” value is inactive: 4.73%.

For the compound `COc1cc(C(=O)OCc2cc(=O)n3nc(C(C)C)sc3n2)cc(OC)c1OC`, the result was inactive.

As for `COc1ccccc1CNC(=O)CSc1ncc2c(n1)-c1cc(Cl)ccc1N(Cc1ccccc1)S2(=O)=O`, the “activity change, negative = inhibition” value is inactive: 2.46%.

For `Cc1c(C(=O)N(Cc2ccc(Cl)cc2)CC2CCCO2)oc2ccc(F)cc12` (stereo not drawn), the “activity change, negative = inhibition” value was inactive: -5.35%.

For `CCn1c(CN2CCOCC2)nc2cc(NC(=O)c3ccc([N+](=O)[O-])cc3)ccc21`, the “activity change, negative = inhibition” value was inactive: -27.2%.

Consider `CCOc1ccc(-c2nc(SCC(=O)NCCCOC)c(-c3ccccc3)[nH]2)cc1`, for which the “activity change, negative = inhibition” value is inactive: -6.58%.

With `Cc1cccc(-n2c(C)nc3cc(C(=O)NC4CCCCCC4)ccc32)c1`, the “activity change, negative = inhibition” value was inactive: -0.408%.

As to `COc1ccc(NC(=O)Nc2c[nH]c(=O)[nH]c2=O)c(OC)c1`, the compound was called inactive.

As for `CCc1ccc(NC(=O)C2=CC(c3ccc4c(c3)OCO4)=NS(=O)(=O)N2C)cc1`, the “activity change, negative = inhibition” value was inactive: -2.66%.

With `O=C(CS(=O)(=O)c1cccc2nsnc12)Nc1cc(F)ccc1F`, the “activity change, negative = inhibition” value is inactive: 8.96%.

As for `O=C(Cc1ccccc1F)N1CCC(c2nc3c(nnn3Cc3ccc(F)cc3)c(=O)[nH]2)CC1`, the “activity change, negative = inhibition” value was inactive: -1.69%.

Regarding `CCOC(=O)c1oc2ccc(S(=O)(=O)n3nc(-c4cc(OC)cc(OC)c4)cc3N)cc2c1C`, the call was inactive.

As for `CC(=O)Nc1ccc(-n2c(CCC(=O)O)ccc2-c2ccc(C)cc2)cc1`, the “activity change, negative = inhibition” value was inactive: -0.374%.

In the case of `CCc1ccc(Sc2cc(C(=O)NCCCOC(C)C)c3ccccc3n2)cc1`, the “activity change, negative = inhibition” value was inactive: -6.81%.

`N#Cc1ccc(OC(=O)c2cc(-c3ccc4c(c3)OCCO4)on2)cc1`: the “activity change, negative = inhibition” value is inactive: -24.9%.

Source of the values: PubChem BioAssay AID1963576 (National Center for Advancing Translational Sciences (NCATS), 2024).
